The structures appear in SMILES notation. Out of some 16,000 compounds screened, about 40 (0.2%) were called active. Inconclusive results (about 1%) are left out. Calls follow the shape of the dose curve; as a rule, active = well fitted activation curve with a large enough effect; inconclusive = small, poorly fitted or top-dose-only effect, or another doubt; inactive = no such curve, though single readings can be large or run the other way. The list shows a part of the results.
% is scaled to controls: 0 for no effect and ±100 for the full control effect.

Sequence of UniProt Q8WZA2 (Q8WZA2 whole entry, looked up): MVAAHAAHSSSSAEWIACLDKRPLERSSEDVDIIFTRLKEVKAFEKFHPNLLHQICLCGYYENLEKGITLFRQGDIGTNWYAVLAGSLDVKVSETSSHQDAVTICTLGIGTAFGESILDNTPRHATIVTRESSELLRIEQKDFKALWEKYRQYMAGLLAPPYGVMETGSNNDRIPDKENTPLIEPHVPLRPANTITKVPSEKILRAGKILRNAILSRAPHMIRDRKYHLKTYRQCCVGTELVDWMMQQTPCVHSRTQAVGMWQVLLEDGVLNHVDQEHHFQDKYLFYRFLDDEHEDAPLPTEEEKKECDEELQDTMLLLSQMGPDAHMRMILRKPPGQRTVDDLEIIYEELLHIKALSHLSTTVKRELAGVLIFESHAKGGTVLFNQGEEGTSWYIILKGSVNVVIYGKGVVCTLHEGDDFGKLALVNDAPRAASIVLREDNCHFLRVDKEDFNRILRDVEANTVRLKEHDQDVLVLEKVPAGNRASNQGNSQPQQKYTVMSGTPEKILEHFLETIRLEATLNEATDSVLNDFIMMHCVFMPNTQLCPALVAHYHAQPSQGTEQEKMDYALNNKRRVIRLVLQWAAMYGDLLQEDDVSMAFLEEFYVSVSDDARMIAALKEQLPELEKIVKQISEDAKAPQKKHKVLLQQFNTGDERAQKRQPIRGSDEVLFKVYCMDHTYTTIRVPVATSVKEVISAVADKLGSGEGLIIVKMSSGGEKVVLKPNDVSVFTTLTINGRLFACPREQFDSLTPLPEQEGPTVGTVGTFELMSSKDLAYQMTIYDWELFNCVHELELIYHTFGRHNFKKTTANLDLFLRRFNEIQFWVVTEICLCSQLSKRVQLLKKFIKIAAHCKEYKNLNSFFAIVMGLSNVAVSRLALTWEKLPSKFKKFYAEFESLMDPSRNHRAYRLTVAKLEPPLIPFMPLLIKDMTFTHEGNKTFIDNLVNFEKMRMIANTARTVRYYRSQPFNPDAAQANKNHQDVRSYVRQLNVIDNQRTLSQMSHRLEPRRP

For this experiment, the target named is Rap guanine nucleotide exchange factor 4 (Homo sapiens) (UniProt Q8WZA2). Nature of the experiment: Validation qHTS for agonist of cAMP-regulated guanine nucleotide exchange factor 4 (EPAC2).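 Also: exchange makes BODIPY-GDP fluorescence drop when released from Rap1B; series mostly up to about 150 µM.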 The following applies: EPAC2 Rap1B BODIPY-GDP exchange, fluorescence; activation: hits give high values. From the text:
Principle Investigator: Xiaodong Cheng Ph.D.
The University of Texas Medical Branch, […], TX
In multi-cellular eukaryotic organisms, the effects of cAMP are transduced by two ubiquitously-expressed intracellular cAMP receptors, the classic protein kinase A/cAMP-dependent protein kinase (PKA/cAPK) and the more recently discovered exchange protein directly activated by cAMP/cAMP-regulated guanine nucleotide exchange factor (EPAC/cAMP-GEF). Both PKA and EPAC are ubiquitously expressed in all tissues, and an increase in intracellular cAMP levels will lead to the activation of both PKA and EPAC. Therefore, careful dissections of the individual role and relative contribution of EPAC and PKA within the overall cAMP signaling in various model systems are critical for further elucidating the mechanism of cAMP signaling. To date no EPAC-specific antagonists and agonist, as well as isoform-specific agonists have been reported, and developing EPAC-specific pharmacological probes to determine the physiological functions that EPAC play in the overall cAMP-mediated signaling remains a major challenge within the research field. Furthermore, identified regulators of EPAC may lead to new mechanism-based therapeutic strategies specifically targeting the EPAC / cAMP-signaling components as EPAC has been implicated to play important roles in major human pathological conditions such as diabetes, heart disease, and cancer.
This qHTS will be used to screen the Molecular Libraries Small Molecule Repository (MLSMR) as a concentration-titration series using the NCGC unique quantitative screening (qHTS) platform to find activators for EPAC1. In addition, this assay will also be used as a counterscreen for the EPAC2 qHTS. This fluorescent based assay is developed and validated for EPAC1 that measures exchange using EPAC effector Rap1 complex with BODIPY-GDP, a GDP analog with a tethered fluorophores. Activators are identified by monitoring the change in fluorescence signal as the exchanged free BODIPY-GDP has a reduced fluorescence compared to Rap1-bound BODIPY-GDP. Increase in signal (activation) is the desired outcome for the EPAC1 agonist while no activity in this assay is desired for the EPAC2 agonist counterscreen.
[1] de Rooij, J., Zwartkruis, F. J., Verheijen, M. H., Cool, R. H., Nijman, S. M., Wittinghofer, A., and Bos, J.L. (1998) Nature 396, 474-477.
Briefly, three uL of reagents (100 nM EPAC2, 250 nM RAP1B-BODIPY-GDP, 50 uM GDP) were dispensed into a 1536-well Greiner black solid-bottom medium binding assay plate. Controls and test compounds (23 nL) were transferred to the plate via a Kalypsys pin tool equipped with a 1536-pin array. The plates were centrifuged at 1,000 rpm for 15 seconds followed by 5 minute incubation at room temperature. The assay plates were read at 5 minute intervals for 30 minutes in the ViewLux plate reader using 480nm excitation and 540nm emission filters. The results were normalized to the agonist positive control of 6.5 mM cAMP.
As to `O=C(Nc1cccc(F)c1)N1CCCC2(CCNCC2)C1`, the activation is inactive: 2.79%.

Consider `CCC(=O)OCC(=O)[C@@]1(OC(=O)CC)[C@H](C)C[C@H]2[C@H]3[C@H]([C@@H](O)C[C@@]21C)[C@@]1(C)C=CC(=O)C=C1C[C@H]3Cl`, for which the activation was inactive: -15.9%.

Regarding `CC(C)CN1CCC2(CC1)CCN(C(=O)c1cccn1C)CC2`, the activation is inactive: -7.6%.

In the case of `O=C(Cc1c[nH]c2ccccc12)N1CCC(n2c(C3CCCO3)nc3cc(C(F)(F)F)ccc32)CC1` (stereo not given), the activation is inactive: -7.22%.

As to `c1ccc2nc(C3=NCCN3)cnc2c1`, the activation is inactive: -8.87%.

Regarding `CCOC(=O)C[C@H]1c2cc(C(F)(F)F)ccc2S(=O)(=O)N1Cc1ccccc1`, the activation was inactive: -26.4%.

As for `CN1CCN(CCC(=O)N2c3ccccc3Sc3ccc(C(F)(F)F)cc32)CC1`, the activation was inactive: 3.66%.

Consider `CC1(C)S[C@@H]2[C@H](NC(=O)C(c3ccccc3)S(=O)(=O)O)C(=O)N2[C@H]1C(=O)O` (stereo not given in full), for which the activation is inactive: -18.7%.

Take `CN(C)CCCO[C@@H]1[C@H]2OC(C)(C)O[C@H]2O[C@@H]1C(O)CO` (stereo not given in full): the activation was inactive: 7.35%.

In the case of `Cc1c(C(=O)NC2CCCCC2)sc2ncnc(NCCN(C)C)c12`, the activation was inactive: -13.8%.

Take `O=C1c2ccccc2S(=O)(=O)N1CCCCN1CCN(c2ncccn2)CC1`: the activation is inactive: -15.7%.

Take `COc1ccc(O)c(CN2CCCN(c3nc(C)c4cc(C)c(C)cc4n3)CC2)c1`: the activation was inactive: -1.46%.

As for `Cc1ccc(S(=O)(=O)O)cc1C`, the activation is inactive: -20.6%.

For the compound `Cc1ccc(SC[C@H](C)CN2CC[C@H](NC(=O)OCc3ccccc3)CCC2=O)cc1`, the activation is inactive: -8.78%.

As for `CN[C@H](CC(C)C)C(=O)N[C@H]1C(=O)N[C@@H](CC(N)=O)C(=O)N[C@@H]2C(=O)N[C@H]3C(=O)N[C@H](C(=O)N[C@H](C(=O)O)c4cc(O)cc(O)c4-c4cc3ccc4O)[C@H](O)c3ccc(c(Cl)c3)Oc3cc2cc(c3O[C@@H]2O[C@H](CO)[C@@H](O)[C@H](O)[C@@H]2O[C@H]2C[C@](C)(N)[C@H](O)[C@H](C)O2)Oc2ccc(cc2Cl)[C@H]1O`, the activation was inactive: -17.1%.

Turning to `CCCCCCCCCCCCCCCCCC(=O)OC(CC(=O)O)C[N+](C)(C)C` (stereo not given), the activation was inactive: -86.4%.

Regarding `COC(=O)c1cc(CNC(=O)c2cccc(C)c2)cc(NC(=O)c2ccncc2)c1`, the activation was inactive: -1.32%.

Turning to `COc1ccccc1C(=O)N1CCCC(c2nc(SCCN3CCOCC3)ncc2C)C1` (stereo not given), the activation was inactive: -9.75%.

`COC(=O)N1CCC2(CC1)CN(C(=O)Nc1cccc(C#N)c1)C2`: the activation is inactive: -8.45%.

On to `COC(=O)C[C@H]1c2ccccc2S(=O)(=O)N1Cc1ccc(OC)cc1`, for which the activation is inactive: -19%.

The record behind these values is PubChem BioAssay AID1645887 (National Center for Advancing Translational Sciences (NCATS), 2021).
